How the values were obtained:
[1] = test system: CD47 deficient (CD47 KO) Jurkat T cells; conditions: for Maximal Response CD47 KO (RLU): CD47 KO Jurkat T cells, 10^-9 to 10^-4 M, CellTiter-Glo; for Δ LogAC50 CD47KO-WT: log AC50 difference CD47 KO minus WT
WT Jurkat cells [2] = conditions: WT Jurkat cells, 48 hours, 10^-9 to 10^-4 M, CellTiter-Glo
[3] = test system: CD47 deficient (CD47 KO) Jurkat T cells; assay: cells; conditions: Homo sapiens, 48 h, read-out: AC50 (μM) CD47 KO
WT Jurkat cells [4] = assay: cells; conditions: Homo sapiens, 48 h, read-out: AC50 (μM) WT

SMILES	inhibitory potency (AC50), CD47-deficient versus WT Jurkat T cells (in words) ([1]; 48 hours)	maximal inhibition of viability, CD47-deficient versus WT Jurkat T cells (in words) ([1]; 48 hours)	Maximal Response CD47 KO (RLU) ([1]; 48 hours)	Δ LogAC50 CD47KO-WT [1]	Maximal Response WT (RLU) (WT Jurkat cells [2])	AC50 [3] [µM]	AC50 (WT Jurkat cells [4]) [µM]	cytotoxicity in CD47 deficient versus wild-type Jurkat cells (FIGS. 14, 15) ([1]; 48 hours, increasing concentrations)
Nc1ccn([C@@H]2O[C@H](CO)[C@@H](O)C2(F)F)c(=O)n1 [Gemcitabine]	significant decrease in inhibitory potency	significantly decreased maximal inhibition of viability	43.326	0.55	10.147	0.186	0.0526	–
COc1cccc2c1C(=O)c1c(O)c3c(c(O)c1C2=O)C[C@@](O)(C(=O)CO)C[C@@H]3O[C@H]1C[C@H](N)[C@H](O[C@@H]2CCCCO2)[C@H](C)O1 [Pirarubicin]	–	–	26.932	0.95	4.326	13.2	1.48	protected

Source: US11285169B2, “Methods for modulating chemotherapeutic cytotoxicity” (The United States of America, as represented by the …, priority 2013, dated 2022)
